According to PubChem BioAssay (Tox21):
Values joined by “and” are separate entries in the source; they are usually repeats but may differ in a detail not shown here. Equal values may be shown once. Inconclusive results, whose numbers are uncertain, are shown with a selection of clear calls. Potencies of inconclusive entries are doubtful fits and often do not repeat. Active and inactive are the calls of the source. Unless noted, calls follow the shape of the full dose curve.

Each molecule was assayed against Vitamin D3 receptor (Homo sapiens) (UniProt P11473) (assay: qHTS assay to identify small molecule agonists of the vitamin D receptor (VDR) signaling pathway (AID 743222)). Conditions: HEK293T VDR-UAS-bla, beta-lactamase FRET ratio, 16 h; activation: at 63.5 µM (top of the series) unless noted.
Sequence of UniProt P11473 (P11473 whole entry, looked up): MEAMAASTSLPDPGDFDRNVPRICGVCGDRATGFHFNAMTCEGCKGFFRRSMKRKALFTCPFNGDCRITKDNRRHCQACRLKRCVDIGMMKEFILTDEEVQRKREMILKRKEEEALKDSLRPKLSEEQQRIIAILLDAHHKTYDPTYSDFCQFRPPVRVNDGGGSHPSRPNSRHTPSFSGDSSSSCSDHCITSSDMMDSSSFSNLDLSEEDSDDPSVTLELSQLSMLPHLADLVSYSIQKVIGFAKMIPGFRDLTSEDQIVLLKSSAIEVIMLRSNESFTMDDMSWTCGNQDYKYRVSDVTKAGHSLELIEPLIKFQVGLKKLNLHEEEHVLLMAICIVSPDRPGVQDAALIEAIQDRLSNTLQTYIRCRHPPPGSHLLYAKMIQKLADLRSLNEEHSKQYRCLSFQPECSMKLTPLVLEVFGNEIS
In short: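 Fluorescence from cleaved LiveBLAzer B/G FRET substrate served as readout. VDR-bla cells had been treated 16 h at 37C with test compounds in DMSO, following a 4 h settling period, and substrate was loaded for 2 h at RT.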
% is scaled to controls: 0 for no effect and ±100 for the full control effect; potency is read from the fitted curve at half-maximal effect; tags tell the direction and shape of the fitted curve or compound fluorescence and quenching.

SMILES	Potency	activation
Cc1ccc(OP(=O)(Oc2ccc(C)cc2)Oc2ccc(C)cc2)cc1	inactive	–
CN(C)CCc1c[nH]c2ccccc12	–	inconclusive: -11.6% [at 81.1 µM]
CN1C[C@H](C(=O)N[C@]2(C)O[C@@]3(O)[C@@H]4CCCN4C(=O)[C@H](Cc4ccccc4)N3C2=O)C=C2c3cccc4[nH]cc(c34)C[C@H]21	inconclusive: 19.6 µM [inhibitor, partial curve, poor fit]	inconclusive: -14.3% [at 29.5 µM]
Nc1ccc(Cl)cc1N	inconclusive: 57.1 µM [fluorescent] and inconclusive: 24.5 µM	–
CCCN(CCC)c1c([N+](=O)[O-])cc(C(F)(F)F)cc1[N+](=O)[O-]	–	inconclusive: -16.9%
CCN(CC)C(=S)S	inconclusive: 4.36 µM	–
C[C@@H]1O[C@@H](O[C@H]2C[C@@H](O)[C@]3(CO)[C@H]4[C@H](O)C[C@]5(C)[C@@H](C6=CC(=O)OC6)CC[C@]5(O)[C@@H]4CC[C@]3(O)C2)[C@H](O)[C@H](O)[C@H]1O	inconclusive: 0.0827 µM [rising, full curve, poor fit]	inconclusive: -21.3%
NCC(O)c1ccc(O)cc1 (stereo not given)	inactive	–
COP(=O)(OC)C(O)C(Cl)(Cl)Cl (stereo not given)	–	inconclusive: 14.2%
COCC(C)N(C(=O)CCl)c1c(C)csc1C (stereo not given)	inconclusive: 49 µM [rising, single point]	–
CC(C)C(Nc1ccc(C(F)(F)F)cc1Cl)C(=O)OC(C#N)c1cccc(Oc2ccccc2)c1 (stereo not given)	–	inactive: 5.75% [at 81.1 µM]
c1ccc2c(c1)cc1ccc3cccc4ccc2c1c34	inconclusive: 49.9 µM [fluorescent, partial curve]	–
c1cc(OCC2CO2)ccc1Cc1ccc(OCC2CO2)cc1 (stereo not given)	inconclusive: 43.8 µM [rising, partial curve] and inconclusive: 38.9 µM [rising, partial curve]	–
Nc1ccccc1-c1ccccc1	–	inactive: -12%
O=[N+]([O-])c1c(Cl)c(Cl)c(Cl)c(Cl)c1Cl	inconclusive: 54.9 µM [single point]	–
Nc1ccncc1	–	inconclusive: -2.69%

The molecules below were run against Vitamin D3 receptor (Homo sapiens) (UniProt P11473) (assay: qHTS assay to identify small molecule antagonists of the vitamin D receptor (VDR) signaling pathway (AID 743223; active = well fitted inhibition curve with a large enough effect in the signal ratio in the repeat runs, not every such curve was filed as active; inconclusive = weak or mixed curves, or effect the other way; inactive = no such curve, though single readings can be large or run the other way; the % refers to the signal ratio)). Conditions: VDR-UAS-bla HEK293T, beta-lactamase FRET ratio, 16 h; activity change, negative = inhibition: at 61 µM (top of the series) unless noted.
In short: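 VDR-bla cells were plated, incubated 4 h at 37C, then given compound and 1alpha,25-dihydroxyvitamin D3 (3 nM final). After 16 h at 37C, LiveBLAzer B/G FRET substrate was added for 2 h at room temperature and fluorescence read.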

SMILES	activity change, negative = inhibition	Potency
CN(C)CCc1c[nH]c2ccccc12	inactive: 0.43% [at 78.8 µM]	–
CN1C[C@H](C(=O)N[C@]2(C)O[C@@]3(O)[C@@H]4CCCN4C(=O)[C@H](Cc4ccccc4)N3C2=O)C=C2c3cccc4[nH]cc(c34)C[C@H]21	–	inconclusive: 61.9 µM [inhibitor, single point] and inconclusive: 10.2 µM [fluorescent, partial curve, poor fit]
CCN(CC)C(=S)S	inconclusive: -44.6% [at 78.8 µM]	inconclusive: 21.7 µM [inhibitor, partial curve, poor fit] and inconclusive: 12.3 µM [inhibitor, partial curve, poor fit]
C[C@@H]1O[C@@H](O[C@H]2C[C@@H](O)[C@]3(CO)[C@H]4[C@H](O)C[C@]5(C)[C@@H](C6=CC(=O)OC6)CC[C@]5(O)[C@@H]4CC[C@]3(O)C2)[C@H](O)[C@H](O)[C@H]1O	–	inconclusive: 329 nM [rising, full curve] and inconclusive: 1.2 µM [rising, full curve]
O=[N+]([O-])c1ccc(Cl)c(Cl)c1Cl	inconclusive: 0.313%	–
CCCCCCCCCCCCn1cc[n+](C)c1	–	active: 55 µM
COP(=O)(OC)C(O)C(Cl)(Cl)Cl (stereo not given)	inconclusive: -43.1% and inconclusive: -3.16%	inconclusive: 27.8 µM [inhibitor, partial curve]
CC1(C)C(C=C(Cl)Cl)C1C(=O)OC(C#N)c1ccc(F)c(Oc2ccccc2)c1 (stereo not given)	–	inconclusive: 34.7 µM [inhibitor, single point]
COCC(C)N(C(=O)CCl)c1c(C)csc1C (stereo not given)	inconclusive: -3.33%	–
Cc1cc(Cl)ccc1OCCCC(=O)O	–	inactive
CC(C)C(Nc1ccc(C(F)(F)F)cc1Cl)C(=O)OC(C#N)c1cccc(Oc2ccccc2)c1 (stereo not given)	inconclusive: -9% [at 78.8 µM]	–
Brc1ccc(Oc2ccc(Br)cc2Br)c(Br)c1	–	inconclusive: 0.0025 µM [falling, full curve]
COc1ccccc1OC	inconclusive: 7.2%	–
COC[C@@H](NC(C)=O)C(=O)NCc1ccccc1	inconclusive: 9.79%	–
c1ccc2c(c1)cc1ccc3cccc4ccc2c1c34	–	inconclusive: 49.9 µM [fluorescent, partial curve]
Clc1cccc(Cl)c1	–	inactive
c1cc(OCC2CO2)ccc1Cc1ccc(OCC2CO2)cc1 (stereo not given)	–	inconclusive: 61.9 µM [fluorescent, single point] and inconclusive: 17.4 µM [activator, partial curve, poor fit]
Nc1ccccc1-c1ccccc1	inconclusive: 7.5%	–
O=C(CCl)CCl	inconclusive: -8.56% [at 78.8 µM]	–
O=[N+]([O-])c1c(Cl)c(Cl)c(Cl)c(Cl)c1Cl	–	inconclusive: 49 µM [rising, partial curve]
